According to PubChem BioAssay AID1347073 (National Center for Advancing Translational Sciences (NCATS), 2019):
Among all 45,000 compounds or so, about 200 (0.44%) were called active. Not shown: some 7% with an inconclusive outcome. The call rests on the fitted dose curve; in most records, active means well fitted activation curve with a large enough effect; inconclusive means small, poorly fitted or top-dose-only effect; inactive means no such curve, though single readings can be large or run the other way. This is one part of the list.

Experiment: qHTS of TDP-43 Inhibitors: NCGC Sytravon Library Screen; further: 0% is about no effect; nearly all actives have a fitted effect of over 55% in size
Conditions: yeast TDP-43 toxicity rescue, BacTiter-Glo growth, 24 h; series mostly up to 46.1 µM; growth rescue (activation): at the top concentration
Method in brief: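 TDP-43-expressing yeast, pregrown in raffinose, seeded at OD600 0.02 in galactose medium with compound for 24 hr at 30 deg C. Growth read by BacTiter-Glo luminescence, so rescue of toxicity appears as activation.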

Structure (SMILES)	growth rescue (activation)
COc1ccc(NS(=O)(=O)c2ccc(N3CCCC3)c(N)c2)cc1	inactive: 4.94%
COc1ccc(CCNC(=O)COC(=O)c2ccccn2)cc1	inactive: -1.56%
O=C1CC(c2ccccc2)CC(O)=C1C=NCCCO (centres undefined)	inactive: -5.28%
O=C(NC1CC1)c1sc2ccccc2c1Cl	inactive: 11.9%
O=C(CSc1nc2ncc(Cl)cc2[nH]1)N1CCC(Cc2ccccc2)CC1	inactive: -2.69%
O=C(O)c1ccccc1N/N=C/c1cc(Br)cc(Br)c1O	inactive: -15.3%
O=C(NC(=S)Nc1ccc(N2CCCC2)cc1)c1ccccc1[N+](=O)[O-]	inactive: -12.6%
COCCOC(=O)C1=C(C)NC(=O)NC1c1ccco1 (centres undefined)	inactive: 10%
COc1ccc(CCC(C)N2CCC(CO)(Cc3ccccc3)CC2)cc1 (centres undefined)	inactive: -0.202%
CN(CCOc1ccccc1)CC(=O)Nc1ccc(Br)cc1F	inactive: 1.09%
CCOc1ccc(NC(=O)COc2ccc(S(=O)(=O)N3CCCC3)cc2)cc1	inactive: 0.921%
COc1ccc(C2C(=O)c3ccccc3C2=O)cc1OC	inactive: 1.97%
O=C(COc1cccc2cccnc12)N/N=C/c1cccn1-c1ccc(F)cc1	inactive: 4.42%
CC#CC[N+](C)(C)CCCCCCCC	inactive: 6.42%
Cc1nnc(SCCn2c(Br)nc3c2c(=O)[nH]c(=O)n3C)s1	inactive: -12.4%
O=C(CN1CCC(C(=O)c2ccc3c(c2)OCCO3)CC1)Nc1ccccc1C(F)(F)F	inactive: 1.22%
O=C(/C=C/c1ccc(Br)o1)Nc1nccs1	inactive: 9.06%
Cc1ccc(/C([O-])=C(/C(=S)NCc2ccccc2)[n+]2ccccc2)cc1[N+](=O)[O-]	inactive: -7.04%
Cc1ccc(S(=O)(=O)N2CCN(C(=O)Cn3c(=O)oc4ccccc43)CC2)cc1	inactive: 23.7%
O=[N+]([O-])c1cc(Cl)c(O)c2ncccc12	inactive: -91%
O=C(N[C@@H](Cc1c[nH]c2ccccc12)C(=O)O)c1ccccc1Cl	inactive: 1.34%
C=COCCNC(=O)C(=O)NC(C)C	inactive: 14.1%
CC1CCC2(CC1)NC(=O)N(CC(=O)Nc1ccc3c(c1)OCCO3)C2=O (centres undefined)	inactive: 10.2%

Structure (SMILES)	growth rescue (activation)
COc1ccccc1CN1CC(C(=O)NCc2nc3ccccc3n2C)CCC1=O (centres undefined)	inactive: 13.5%
Cc1ccc2nc(-c3ccc4c(c3)NC(=O)CO4)cn2c1	inactive: 7.69%
Cc1ccc(NC(=O)Cn2ccsc2=N)cc1S(=O)(=O)N(C)C	inactive: -2.04%
CCN(CC)S(=O)(=O)c1ccc(-c2cn3cc(Cl)ccc3n2)cc1	inactive: 1.88%
O=C(CN(Cc1ccccc1)S(=O)(=O)c1ccc(Cl)cc1)NCC1CCCO1 (centres undefined)	inactive: 22.8%
COc1cc2c(cc1OC)CN(C(=O)c1ccco1)CC2	inactive: -13.1%
Cc1ccc(C(C(=O)NC2CCCCC2)N(C(=O)c2csnn2)C2CC2)cc1 (centres undefined)	inactive: 5.09%
CC(C)N1CCC1(C)C(=O)Nc1ccccc1OC(F)F (centres undefined)	inactive: 9.19%
CC1CC2(C)Oc3ccccc3CC2C(C)C1CNCCCN(C)C (centres undefined)	inactive: -4.76%
CC12CCC(C(=O)N(c3ccc(Cl)cc3)C1=O)C2(C)C (centres undefined)	inactive: 21.2%
Cc1coc2c1c(C)cc1oc(=O)c(CC(=O)NCCCCCC(=O)O)c(C)c12	inactive: 0.309%
O=C(CCc1ccccc1)Nc1cc2c(cc1C(=O)O)OCCCO2	inactive: 9.27%
CCN(CC)S(=O)(=O)c1ccc(NC(=O)c2cc(=O)[nH]c3ccccc23)cc1	inactive: 9.58%
O=C(Nc1noc2ccccc12)c1ccc(F)cc1	inactive: 14.8%
CCn1cc(CN2CCC(C(=O)Nc3cccc(-c4cscn4)c3)CC2)cn1	inactive: 1.4%
COc1ccc(S(=O)(=O)Nc2ccccc2C)cc1C(=O)N1CCOCC1	inactive: -10.6%
NC(=O)C1CCCN(C(=S)NCc2ccc3c(c2)OCO3)C1 (centres undefined)	inactive: 8.93%
CC(=O)c1cccc(N(CC(=O)Nc2ccccc2F)S(C)(=O)=O)c1	inactive: -22%
Cc1cccc(N=Nc2cnc(N)s2)c1	inactive: -0.581%
CC(=O)OC1OCCOC1NC(=S)Nc1cccc(C(F)(F)F)c1 (centres undefined)	inactive: 14.2%
Cc1nn2c(NCCN3CCOCC3)c3c(nc2c1-c1ccccc1)CCCC3	inactive: 0.552%
C/C(=N\NC(=O)CSCc1ccc([N+](=O)[O-])cc1)c1cccc(Br)c1	inactive: 19.5%
O=C(Nc1cccc(Cl)c1Cl)c1cc(S(=O)(=O)NCCc2ccccc2)ccc1F	inactive: 16.4%

Structure (SMILES)	growth rescue (activation)
CCOC(=O)C1=C(C)NC(C)=C(C(=O)OCC)C1C(=O)OCC(=O)N1c2ccccc2CC1C (centres undefined)	inactive: 5.65%
COc1sc(SC)cc1/C=N/NC(=O)c1ccncc1	inactive: -25.9%
NC1=NS(=O)(=O)NC1c1ccc(Br)cc1 (centres undefined)	inactive: 7.92%
CSC(=NCc1ccc(F)cc1)NS(=O)(=O)c1cccs1	inactive: 20.6%
O=C(N1CCOCC1)N1CCN(S(=O)(=O)c2ccc(Cl)cc2)C1	inactive: 10.2%
Nc1nc(SCc2nc3sc4c(c3c(=O)[nH]2)CCCC4)n[nH]1	inactive: 14.3%
O=C1C2C3C=CC(C4CC34)C2C(=O)N1/N=C/c1c[nH]c2ccccc12 (centres undefined)	inactive: 1.57%
CCc1ccccc1N(C)S(=O)(=O)c1ccc2[nH]cc(C(=O)N3CCc4ccccc43)c(=O)c2c1	inactive: 0.759%
CCOc1ccc(C(=O)N[C@H](C(=O)Nc2ccc(S(=O)(=O)Nc3nccs3)cc2)C(C)C)cc1	inactive: 7.58%
COc1ccc(NC(=O)CN(c2ccccc2)S(=O)(=O)N(C)C)cc1Cl	inactive: -9.16%
Cc1nn(CC(=O)Nc2ccc(N3CCOCC3)cc2)c(C)c1Br	inactive: -6.72%
COCCCNC(=O)c1ccc2nc([C@@H]3O[C@H](CO)[C@H](O)[C@H](O)[C@H]3O)[nH]c2c1	inactive: 3.57%
Cc1cc(C)nc(NS(=O)(=O)c2ccc(NC(=O)C3COc4ccccc4O3)cc2)n1 (centres undefined)	inactive: -15.8%
O=c1c(-c2ccc(Cl)cc2)[n+]([O-])c2ccccc2n1OCc1nc2ccccc2[nH]1	inactive: -4.37%
CCNC(=O)Cn1c(=O)c(=O)n(Cc2ccccc2)c2ccc(Cl)cc21	inactive: 6.5%
CC(=O)Nc1cc(-c2ccc(C(=O)NC3CC3)cc2)cn2c(-c3cccc(C(C)=O)c3)cnc12	inactive: 6.72%
Cc1sc(-c2ccncc2)nc1OC(=O)c1cc(Cl)cc(Cl)c1	inactive: 13.9%
CC(C)C(=O)N1CCC1(C)C(=O)Nc1cc(-c2ccccc2)nn1C (centres undefined)	inactive: -3.87%
Cc1cccc(N2CCN(C(=O)NC(C)c3ccc(F)c(F)c3)CC2)c1C (centres undefined)	inactive: 21.1%
COCc1c(C(=O)OCC(=O)NCCN2C(=O)CSC2=O)oc2ccccc12	inactive: 3.27%
CN(CCOc1ccccc1)C(=O)c1ccc(N2CCCC2)c([N+](=O)[O-])c1	inactive: -6.04%
O=C(N/N=C/c1cnc(N2CCCCC2)s1)c1ccc(Cl)cc1	inactive: 7.98%
O=C(CCCn1c(=O)c2sccc2n(Cc2ccc(F)cc2Cl)c1=O)NCc1ccc2c(c1)OCO2	inactive: 12.5%
